According to PubChem BioAssay (Tox21):
“And” between values parts separate entries of the source, which are not always exact repeats. Equal values may be shown once. The inconclusive results got no clear call from the source; some entries with a clear call stand among them for comparison. Potencies beside an inconclusive call are fits to weak or partial responses and may not hold up. The source made the active and inactive calls. Calls follow the shape of the dose curve; as a rule, active = well fitted inhibition curve with a large enough effect in the signal ratio in the repeat runs (not every such curve was filed as active); inconclusive = weak or mixed curves, or effect the other way; inactive = no such curve, though single readings can be large or run the other way; the % refers to the signal ratio.

What follows are compounds tested against Peroxisome proliferator-activated receptor delta (Homo sapiens) (UniProt Q03181) (assay: qHTS assay to identify small molecule antagonists of the peroxisome proliferator-activated receptor delta (PPARd) signaling pathway (AID 743215;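 also: cells stimulated with agonist L165041 at 300 nM final during compound exposure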)). Details: HEK293H PPARd-UAS-bla, beta-lactamase FRET ratio, antagonist, 17 h; at 62 µM (top of the series).
Sequence of UniProt Q03181 (Q03181 whole entry, looked up): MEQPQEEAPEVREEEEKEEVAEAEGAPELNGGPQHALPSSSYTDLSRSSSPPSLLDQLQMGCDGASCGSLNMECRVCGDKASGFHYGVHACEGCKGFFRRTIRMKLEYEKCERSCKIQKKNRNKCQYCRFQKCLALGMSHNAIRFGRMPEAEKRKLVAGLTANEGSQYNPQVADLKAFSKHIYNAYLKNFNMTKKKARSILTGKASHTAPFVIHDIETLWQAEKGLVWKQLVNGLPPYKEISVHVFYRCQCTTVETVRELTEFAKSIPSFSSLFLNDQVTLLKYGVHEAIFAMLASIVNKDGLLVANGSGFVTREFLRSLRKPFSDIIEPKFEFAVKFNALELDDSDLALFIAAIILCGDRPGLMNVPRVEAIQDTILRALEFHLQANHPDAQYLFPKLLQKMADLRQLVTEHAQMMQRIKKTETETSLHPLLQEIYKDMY
Source text: U.S. Tox21 Program National Center for Advancing Translational Sciences [NCATS] NIH Chemical Genomics Center [NCGC] U.S. Environmental Protection Agency [EPA] National Institutes of Environmental Health Sciences [NIEHS] National Toxicology Program [NTP] U.S. Food and Drug Administration [FDA] Tox21 Assay Overview: The peroxisome proliferator-activated receptors (PPARs) are lipid-activated transcription factors of the nuclear receptor superfamily with three distinct subtypes namely PPAR alpha, PPAR delta (PPARd) and PPAR gamma. All these subtypes heterodimerizes with Retinoid X receptor (RXR) and have different physiological functions. […] To identify the compounds that inhibit PPAR-delta signaling, GeneBLAzer PPAR delta UAS-bla HEK293H cell line (Invitrogen, Carlsbad, CA, USA) containing a beta-lactamase reporter gene under the control of an Upstream Activator Sequence (UAS) was used to screen the Tox21 compound library.
Tox21 Assay Protocol Summary: PPARd-bla cells were dispensed at 3000 cells/5uL/well in 1536-well black wall/clear bottom plates using a Multidrop Combi (Thermo Fisher Scientific, Waltham, MA) dispenser. After the assay plates were incubated at 37 C and 5% CO2 for 5 h, 23 nL of compounds dissolved in DMSO, positive controls or DMSO only was transferred to the assay plate by a Pintool station (Kalypsys, San Diego, CA), followed by addition of 1ul L165041 (300 nM, final concentration in the wells). The assay plates were incubated at 37 C for 17 h, and then 1 uL of LiveBLAzerTM B/G FRET substrate was added using a Bioraptr Flying Reagent Dispenser (FRD) workstation (Beckman Coulter, Indianapolis, IN, USA). The assay plates were incubated at room temperature for 2 h and fluorescence intensity was measured by an Envision plate reader (PerkinElmer, Shelton, CT).
% is scaled to controls: 0 for no effect and ±100 for the full control effect; potency is read from the fitted curve at half-maximal effect; tags tell the direction and shape of the fitted curve or compound fluorescence and quenching.

SMILES	ratio activity, negative = inhibition
CCCCOC(=O)CC(CC(=O)OCCCC)(OC(C)=O)C(=O)OCCCC	inactive: -12.9% and inactive: -0.281%

Same assay, conditions: HEK293H PPARd-UAS-bla, beta-lactamase FRET ratio, antagonist, 17 h; ratio activity, negative = inhibition: at 62 µM (top of the series) unless noted

SMILES	Potency	ratio activity, negative = inhibition
CCCCCCCC/C=C\CCCCCCCC(=O)OC(CO)CO	inconclusive: 12.3 µM [rising, partial curve, poor fit]	–
O=C1OC(=O)C2CC=CCC12 (stereo not given)	–	inactive: 15.7% [at 80.4 µM]
CC(C)CCCC(C)NCCC(C)C (stereo not given)	–	inactive: -0.735%
O=C(O)/C=C\C(=O)O	inactive	–
CCC(C)(O)CCC=C(C)C (stereo not given)	–	inactive: 2.11%
CC(=O)OCC(=O)[C@@]1(O)CC[C@H]2[C@@H]3CCC4=CC(=O)C=C[C@]4(C)[C@H]3[C@@H](O)C[C@@]21C	–	inconclusive: 10.1%
N#Cc1ccc(C2CCCc3cncn32)cc1 (stereo not given)	inconclusive: 3.49 µM [rising, partial curve, poor fit]	–
COC(=O)/C=C(/C)N	–	inactive: 2.3%
Cc1nc(C2CCCCC2)c(-c2ccc(S(N)(=O)=O)c(F)c2)o1	–	inconclusive: 14.4%
CC(=O)c1ccccc1[N+](=O)[O-]	–	inactive: 1.08%
FC(F)(F)/C(=N\OCC1OCCO1)c1ccc(Cl)cc1	inconclusive: 61.6 µM [falling, partial curve, poor fit]	–
CN1CCCN=C1/C=C/c1cccs1	–	inconclusive: -34.2%
O=C(O)c1snc(Cl)c1Cl	–	inactive: -2.22%
O=S(=O)(O)c1cc(O)c(O)c(S(=O)(=O)O)c1	–	inconclusive: 11.7%
CCOC(=O)C(=O)CCCCCCl	–	inactive: 4.39%
C[N+](C)(C)CC(O)CCl (stereo not given)	–	inconclusive: 0.488% [at 80.4 µM]
C=C(C)C(=O)OCc1ccccc1	–	inconclusive: 6.2%
CC(=O)Nc1ccc(S(=O)(=O)Nc2ccc([N+](=O)[O-])cc2)cc1	–	inconclusive: -3.18%
CCOC(=O)OCC	–	inactive: 8.32% [at 80.4 µM]
OCCN1CCOCC1	–	inactive: -11.8%

SMILES	Potency	ratio activity, negative = inhibition
CCC(=O)OCCC(C)CCC=C(C)C (stereo not given)	–	inconclusive: 5.24%
O=C(Nc1cccc(C2=NCCN2)c1)Nc1cccc(C2=NCCN2)c1	–	inactive: -15.6% [at 28.9 µM]
FC1(F)C(F)(F)C(F)(F)C2(F)C(F)(C1(F)F)C(F)(F)C(F)(F)C1(F)C(F)(F)C(F)(F)C(F)(F)C(F)(F)C12F (stereo not given)	–	inconclusive: 31.9%
C=C(C)C(=O)OCCOC1CC2CC1C1C=CCC21 (stereo not given)	–	inactive: -0.232% [at 80.4 µM]
C=CC(C)CCCC(C)(C)O (stereo not given)	inactive	–
CCNC(=O)/C=C/c1cccc(Br)c1	–	inactive: 1.93%
Nc1ncnc2c1ncn2Cc1c(F)cccc1Cl	–	inconclusive: 9.77%
CCn1cc(C(=O)O)c(=O)c2cc(F)c(N3CCN(C)CC3)cc21	–	inactive: 1.63% [at 28.9 µM]
c1cnc(N2CCN(Cc3ccc4c(c3)OCO4)CC2)nc1	–	inactive: -10.1%
CCc1ncc(C)[nH]1	–	inactive: -0.423%
CC(=O)Nc1cccc(C)c1	–	inconclusive: 7.57% [at 80.4 µM]
CC(=O)Nc1ccc(OCC(O)CNC(C)C)cc1 (stereo not given)	–	inactive: -0.352%
CCN(CC)CCNC(=O)COc1ccc(Cl)cc1	–	inactive: -0.519%
CCCOc1ccc(C(=O)OCCN(CC)CC)cc1N	–	inactive: 1.65%
CN1CCN(c2c(F)cc3c(=O)c(C(=O)O)cn4c3c2SCC4)CC1	–	inactive: 9.71%
CCCCOC(=O)CC(CC(=O)OCCCC)(OC(C)=O)C(=O)OCCCC	–	inconclusive: -25.2% [at 80.4 µM]
CCCC[O][Al]([O]CCCC)[O]CCCC	–	inconclusive: 2.33%
NC(=O)c1ccc([N+](=O)[O-])cc1Cl	inactive	–
O=C1c2ccccc2C(=O)N1CO	–	inactive: 0.973% [at 80.4 µM]
